# From patent US9074002B2, “PTP1B inhibitors” (Cold Spring Harbor Laboratory, priority 2009, dated 2015)
# T1: PTP1B under reducing condition (Homo sapiens, UniProt P18031)
# T1 construct: made in house; host or cells: E. coli BL21 (pET19b)
# T1 sequence (P18031 3-277 limits assumed): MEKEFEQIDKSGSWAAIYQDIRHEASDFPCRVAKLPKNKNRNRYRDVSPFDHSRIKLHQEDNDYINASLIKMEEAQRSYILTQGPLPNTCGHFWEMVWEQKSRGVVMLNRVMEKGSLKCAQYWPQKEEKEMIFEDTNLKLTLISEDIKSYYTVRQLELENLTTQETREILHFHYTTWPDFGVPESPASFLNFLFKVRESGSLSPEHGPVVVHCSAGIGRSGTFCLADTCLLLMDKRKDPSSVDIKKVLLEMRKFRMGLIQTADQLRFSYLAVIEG
# T2: PTP1B-OX (Homo sapiens, UniProt P18031)
# T2 construct: made in house; host or cells: E. coli BL21 (pET19b)
# T2 sequence (P18031 3-277): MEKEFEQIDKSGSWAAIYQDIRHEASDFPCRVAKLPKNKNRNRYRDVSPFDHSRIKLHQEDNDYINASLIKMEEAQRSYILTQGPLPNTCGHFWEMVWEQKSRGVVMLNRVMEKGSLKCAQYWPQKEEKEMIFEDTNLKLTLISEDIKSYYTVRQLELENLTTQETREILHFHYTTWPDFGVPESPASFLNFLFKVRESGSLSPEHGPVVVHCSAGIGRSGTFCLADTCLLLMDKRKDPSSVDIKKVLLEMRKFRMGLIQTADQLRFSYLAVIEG
# Key:
# [1] = molecular target: T1, PTP1B under reducing condition; assay: In vitro binding assay, purified recombinant PTP1B (37 kDa) and purified scFv, Ni-NTA pull down, reducing condition; conditions: with 2 mM TCEP; FIG. 9
# Method: (§1) They established conditions in which PTP1B is reversibly oxidized by H2O2 in solution (FIG. 8). An artificial protein substrate RCML, in which tyrosine was phosphorylated with ^32P using recombinant GST-FER kinase was used in this assay to measure the phosphatase activity. Recombinant PTP (37 kDa) was incubated with increasing concentration (50 μM to 100 mM) of H2O2. A quick buffer exchange was done to remove the H2O2 and reducing agent (TCEP) was added to reactivate the enzyme.
# (§2) In the in vitro binding assay, purified PTP was reversibly oxidized with […] followed by a quick buffer exchange to remove H2O2 (FIG. 8). Purified scFv was incubated in molar excess with PTP1B-OX or with PTP under reducing condition (with 2 mM TCEP) in binding buffer (20 mM HEPES, pH 7.4, 300 mM NaCl, 0.05% BSA, 0.05% Tween-20 and 10 mM imidazole) for 2 hours at 4° C. Ni-NTA agarose was added and incubated for one hour at 4° C. Protein complex bound to Ni-NTA agarose beads was pulled down and washed (three times, 5 minutes each, at 4° C.) with binding buffer containing 20 mM imidazole to reduce non-specific binding to the beads. […] The complex was separated by SDS-PAGE and PTP1B was detected with anti-PTP1B antibody (FG6) and scFv was detected with anti-HA antibody [anti-HA (3F10)-HRP, Roche] by immunoblotting. […]
# PTP1B-OX = molecular target: T2, PTP1B-OX; assay: In vitro binding assay, purified recombinant PTP1B (37 kDa) and purified scFv, Ni-NTA pull down; conditions: purified proteins, scFv in molar excess, 2 hours at 4° C.; FIG. 9
# Method: as §1, §2
molecule,measurement,setting,value
"scFv48: scFv, SEQ ID NO: 81 (protein) scFv: MKKTAIAIAVALAGFATVAQAALTQPSSVSANPGETVKITCSEGGRSSYYGWYQQKAPGSAPVTVIYDSSSRPSDIPSRFSGSKSGSTGTLTITGVQAEDEAVYYCGSTDSSTSAAIFGAGTTLTVLGQSSRSSTVTLDESGGGLQTPGRALSLVCKASGFTFSSFNMGWVRQAPGKGLEYVASISSSGSYTAYGSAVKGRATISRDNGQSTVRLQLNNLRAEDTATYYCAKAAGSAYYYTAVTPAFAGSIDAWGHGTEVIVSSTSGQAGQHHHHHHGAYPYDVPDYAS",binding to PTP1B under reducing condition in vitro,[1],no significant binding
same,binding to PTP1B-OX in vitro,PTP1B-OX,no significant binding
